Measurements as given in article PMC12238530, “Dynamic SAS-6 phosphorylation aids centrosome duplication and elimination in C. elegans oogenesis” (EMBO Reports, 2025).
These are yes or no findings as the source states them, for the method shown. For some assays here: In cells and extracts the contact can be indirect. Some entries that bind do so weakly or less than the wild type. Where a sequence is shown, tags or fusion partners need not be part of it. Blank lines part the entries; values can stand above or below the molecule they belong to.

By UniProt entry, the sequences of proteins in these tests, tags left out.
UniProt P34556: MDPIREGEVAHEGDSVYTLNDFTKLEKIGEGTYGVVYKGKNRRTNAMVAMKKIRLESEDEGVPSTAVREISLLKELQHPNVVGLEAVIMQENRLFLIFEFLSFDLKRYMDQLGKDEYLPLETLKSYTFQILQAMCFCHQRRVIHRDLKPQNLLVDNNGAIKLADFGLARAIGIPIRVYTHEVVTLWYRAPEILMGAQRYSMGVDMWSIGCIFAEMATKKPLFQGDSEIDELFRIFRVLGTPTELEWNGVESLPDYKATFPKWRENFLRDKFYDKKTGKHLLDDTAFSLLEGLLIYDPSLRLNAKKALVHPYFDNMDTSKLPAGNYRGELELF

Tests used:
[1] = molecular target: T1, GST-SAS-6-mCherry (C. elegans) (UniProt O62479); experiment: pull-down; GST fusion proteins immobilised on glutathione Sepharose 4B; precleared HEK293T lysate in P150 buffer, 4 °C, 4 h; immunoblot and CBB staining (Fig. 4C, 5G); only the target purified
T1 sequence: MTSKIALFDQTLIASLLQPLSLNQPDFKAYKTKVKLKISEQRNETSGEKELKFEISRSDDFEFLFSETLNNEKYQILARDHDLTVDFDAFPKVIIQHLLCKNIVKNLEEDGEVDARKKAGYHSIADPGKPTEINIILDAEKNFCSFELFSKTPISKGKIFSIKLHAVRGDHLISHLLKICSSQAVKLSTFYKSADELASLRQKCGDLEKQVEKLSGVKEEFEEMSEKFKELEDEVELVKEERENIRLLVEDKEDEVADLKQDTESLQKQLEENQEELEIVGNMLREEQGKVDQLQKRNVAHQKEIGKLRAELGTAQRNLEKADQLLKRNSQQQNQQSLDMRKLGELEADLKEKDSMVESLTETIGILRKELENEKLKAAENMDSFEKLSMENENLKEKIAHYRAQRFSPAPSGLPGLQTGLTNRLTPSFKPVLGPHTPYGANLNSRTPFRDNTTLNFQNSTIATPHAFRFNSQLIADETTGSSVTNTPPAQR

[2] = molecular target: T2, SAS-6-GFP (C. elegans) (UniProt O62479); experiment: co-IP; α-GFP IP from HEK293T cells co-expressing SAS-6-GFP and Myc-CDK-1; WB (Fig. 4D)
T2 sequence: T1 sequence

[3] = molecular target: T3, SAS-4-GFP (C. elegans) (UniProt P34402); experiment: pull-down; GFP pulldown: SAS-4-GFP immunoprecipitated from HEK293T cells, incubated with purified SAS-6-C-mCherry-His with or without pre-phosphorylation by CDK1; WB (Fig. 5H); only the binder purified
T3 sequence: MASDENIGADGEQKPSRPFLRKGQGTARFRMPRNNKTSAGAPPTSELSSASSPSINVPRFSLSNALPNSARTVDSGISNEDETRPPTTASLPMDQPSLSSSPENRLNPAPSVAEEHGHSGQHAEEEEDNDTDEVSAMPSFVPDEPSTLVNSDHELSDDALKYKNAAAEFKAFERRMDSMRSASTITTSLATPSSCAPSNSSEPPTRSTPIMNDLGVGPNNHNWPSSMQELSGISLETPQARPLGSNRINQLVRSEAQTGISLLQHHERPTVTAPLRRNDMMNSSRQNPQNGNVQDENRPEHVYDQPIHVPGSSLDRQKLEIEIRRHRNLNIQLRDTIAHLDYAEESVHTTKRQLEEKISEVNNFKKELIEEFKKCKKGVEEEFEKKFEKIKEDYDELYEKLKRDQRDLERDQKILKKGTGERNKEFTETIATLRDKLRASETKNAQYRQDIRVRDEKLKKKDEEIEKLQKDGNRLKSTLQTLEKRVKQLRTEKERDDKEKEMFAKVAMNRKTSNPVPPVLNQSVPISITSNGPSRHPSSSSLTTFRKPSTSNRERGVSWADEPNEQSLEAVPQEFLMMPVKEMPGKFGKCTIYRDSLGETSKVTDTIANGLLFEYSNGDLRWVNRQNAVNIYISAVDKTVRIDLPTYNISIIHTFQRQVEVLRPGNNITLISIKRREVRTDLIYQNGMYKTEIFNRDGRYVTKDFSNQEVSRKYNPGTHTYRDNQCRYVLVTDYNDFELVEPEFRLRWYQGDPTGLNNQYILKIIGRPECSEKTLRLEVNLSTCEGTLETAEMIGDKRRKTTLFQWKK

[4] = molecular target: T4, GST-SAS-6(∆N) (C. elegans, UniProt O62479 171-492); experiment: pull-down; GST fusion proteins immobilised on glutathione Sepharose 4B; precleared HEK293T lysate in P150 buffer, 4 °C, 4 h; immunoblot and CBB staining (Fig. 4C, 5G); only the target purified
T4 construct: SAS-6, C. elegans, N-terminal head domain deleted (∆1–170), so residues 171-492; also called GST-SAS-6-ΔN; source: E. coli BL21 (DE3), purified (Glutathione Sepharose 4B); not shown: GST, N-terminal, kept
T4 sequence (looked up): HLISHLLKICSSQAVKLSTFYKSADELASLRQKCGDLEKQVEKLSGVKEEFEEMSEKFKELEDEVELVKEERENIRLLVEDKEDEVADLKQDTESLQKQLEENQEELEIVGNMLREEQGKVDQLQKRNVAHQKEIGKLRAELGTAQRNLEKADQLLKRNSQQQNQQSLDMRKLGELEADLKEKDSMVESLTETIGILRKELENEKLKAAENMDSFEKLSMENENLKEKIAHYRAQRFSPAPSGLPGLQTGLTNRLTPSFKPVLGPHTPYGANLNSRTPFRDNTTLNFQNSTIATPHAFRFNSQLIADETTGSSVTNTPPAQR

[5] = molecular target: T5, GST-SAS-6(∆M) (C. elegans) (UniProt O62479); experiment: as above
T5 sequence: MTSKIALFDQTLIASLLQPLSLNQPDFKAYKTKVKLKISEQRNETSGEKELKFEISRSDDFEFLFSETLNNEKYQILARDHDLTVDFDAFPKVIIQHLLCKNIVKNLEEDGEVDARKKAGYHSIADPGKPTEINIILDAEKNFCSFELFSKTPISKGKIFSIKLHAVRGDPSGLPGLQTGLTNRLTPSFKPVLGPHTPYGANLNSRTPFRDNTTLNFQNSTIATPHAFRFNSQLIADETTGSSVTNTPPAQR

[6] = molecular target: T6, GST-SAS-6 full-length (FL) (C. elegans, UniProt O62479 1-492); experiment: as above
T6 construct: SAS-6, C. elegans, full length (1-492); pGEX6P1-GST vector; also called full-length SAS-6 coupled to beads; source: E. coli BL21 (DE3), purified (Glutathione Sepharose 4B); not shown: GST, N-terminal, kept
T6 sequence (looked up): T1 sequence

[7] = molecular target: T7, GST-SAS-6-M (C. elegans) (UniProt O62479); experiment: bead recruitment assay; bead-coupled FL or truncated SAS-6, with or without pre-phosphorylation; recruitment of HEK293T cell-expressed SAS-4-GFP seen by fluorescence (Fig. 5I); only the target purified
T7 sequence: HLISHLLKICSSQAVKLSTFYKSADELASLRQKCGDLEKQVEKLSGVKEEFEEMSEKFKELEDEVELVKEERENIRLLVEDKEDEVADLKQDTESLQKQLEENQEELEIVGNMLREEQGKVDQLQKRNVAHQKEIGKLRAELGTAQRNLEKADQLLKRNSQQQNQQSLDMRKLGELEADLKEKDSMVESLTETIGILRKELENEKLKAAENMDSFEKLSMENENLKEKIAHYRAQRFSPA

[8] = molecular target: T4, GST-SAS-6(∆N); experiment: as above
[9] = molecular target: T5, GST-SAS-6(∆M) (C. elegans); experiment: as above
[10] = molecular target: T8, GST-SAS-6-M, pre-phosphorylated (C. elegans) (UniProt O62479); experiment: as above
T8 sequence (chain, pre-phosphorylated; sites on this fragment not stated): T7 sequence

[11] = molecular target: T6, GST-SAS-6 full-length (FL); experiment: as above

binding [1]: binds | binding [2]: binds
Molecule: Myc-CDK-1 (from UniProt P34556 1-332) (enzyme)

binding [3]: binds
B1: SAS-6-C-mCherry-His (domain or fragment, C. elegans, UniProt O62479 401-492, looked up)
chain: HYRAQRFSPAPSGLPGLQTGLTNRLTPSFKPVLGPHTPYGANLNSRTPFRDNTTLNFQNSTIATPHAFRFNSQLIADETTGSSVTNTPPAQR
notes: SAS-6, C. elegans, C-terminal unstructured region, residues 401-492; Cloned in pET.28a-mCherry; the primer's vector part encodes LFQGP before the NdeI site, so a further N-terminal tag may be there; also called mCherry-His tagged SAS-6 C-terminus; SAS-6 C-terminus; source: E. coli BL21 (DE3), purified (Ni-NTA); not shown: mCherry, C-terminal, kept; His, C-terminal, kept

binding [4]: binds | binding [5]: no binding | binding [6]: binds | binding [7]: binds weakly | binding [8]: binds | binding [9]: no binding | binding [10]: binds weakly | binding [11]: binds
B2: SAS-4-GFP (protein, UniProt P34402 1-808)
chain: T3 sequence
